Test results published in PubChem BioAssay AID463173 (ICCB-Longwood Screening Facility, Harvard Medical School, 2010).
About 4,300 (8.3%) of roughly 52,000 compounds were called active. No stated cut-off is given here; in the data, active means survival mostly below about 52% (no sharp cut-off); inactive means mostly above about 56%. The list shows a part of the results.

system: DeltatarO mutant; test: S. aureus survival, RN4220 and DeltatarO strains – OD600, teichoic acid synthesis inhibitors, primary screen (AID 463173); conditions: S. aureus RN4220 wild type/DeltatarO growth, OD600, 18 h, active compounds read low, screened at 18.75 µg/mL (by protocol)

| SMILES | survival |
| --- | --- |
| COc1ccc(NC(=O)C(c2ccc(OC)cc2)N(C)C(=O)Cc2cccs2)cc1 (stereo unspecified) | inactive: 61% |
| Cn1ccc2cc(S(=O)(=O)N3CCN(C(=O)Nc4cccc(F)c4)CC3)ccc21 | inactive: 102% |
| COc1cccc(C(=O)CN2C(=O)C(C)(C)Oc3ccc(C(=O)N4CCOCC4)cc32)c1 | inactive: 83% |
| COc1ccccc1N1CCN(S(=O)(=O)CCNC(=O)c2cc(=O)c3ccccc3o2)CC1 | inactive: 87% |
| CC(C)(Oc1ccc(Cl)cc1)C(=O)Nc1ccc(-c2nc3ncccc3o2)cc1 | inactive: 52% |
| CCCCOC(=O)c1ccc(NC(=O)C2(c3cccs3)CCOCC2)cc1 | inactive: 83% |
| CC(=O)N1CCc2cc(CNS(=O)(=O)c3cccs3)ccc21 | inactive: 75% |
| COc1ccc(-c2nnc(SCC(=O)Nc3cccc(C)c3)s2)cc1 | inactive: 91% |
| CCOC(=O)c1c(NC(=O)CSc2cn(CCNC(=O)c3ccc(OC)cc3)c3ccccc23)sc2c1CCC2 | inactive: 78% |
| CC1(C)CC(NC(=O)c2ccccc2Cl)CC(C)(C)N1 | inactive: 63% |
| COc1ccccc1-c1cc(C(=O)Nc2c(C)nn(Cc3ccc(Cl)cc3)c2C)no1 | active: 29% |
| COc1ccc(NC(=O)CSc2nccn2C2CCCC2)cc1OC | inactive: 89% |
| Cc1nn(CC(=O)Nc2ccc(C(C)C)cc2)c(=O)c2c(C)n(-c3ccc(Cl)cc3)nc12 | inactive: 92% |
| COc1ccc(-c2cn3nc(N4CCCC(C(=O)Nc5ccccc5F)C4)sc3n2)cc1 (stereo unspecified) | inactive: 83% |
| CCOc1ccccc1N(C)C(=O)c1sc2nc3n(c(=O)c2c1C)CCCC3 | inactive: 64% |
| CCCCN(CCCNC(=O)c1cc(Nc2ccc(OC)cc2OC)nc2ccccc12)Cc1ccccc1 | inactive: 99% |
| O=C(CSc1nc(=O)n(Cc2ccncc2)c2c1CCC2)Nc1ccccc1 | inactive: 68% |
| COc1cccc(N2CCN(C(=O)CCn3nc(C)c(S(=O)(=O)N4CCCC4)c3C)CC2)c1 | inactive: 92% |
| COc1cccc(CNC(=O)CCc2c(C)c3cc4c(C)coc4cc3oc2=O)c1 | inactive: 63% |
| COc1ccc(C(CNC(=O)COc2cc(C)c(Cl)c(C)c2)N2CCCCC2)cc1 (stereo unspecified) | inactive: 83% |
| Cc1ccccc1C(=O)Nc1cccc(-c2nc3cccnc3s2)c1 | inactive: 81% |
| Cc1cc(C)c2c(n1)sc1c(N3CCN(CCO)CC3)ncnc12 | inactive: 109% |
| CCC(Oc1ccccc1)C(=O)Nc1nnc(S(=O)(=O)N2CCCC2)s1 (stereo unspecified) | inactive: 103% |

| SMILES | survival |
| --- | --- |
| CCc1ccc(OCC(=O)Nc2c(C(=O)c3ccc(Br)cc3)oc3ccccc23)cc1 | inactive: 85% |
| Nc1ccc(S(=O)(=O)N2CCCC(C(=O)O)C2)cc1 (stereo unspecified) | inactive: 95% |
| CCOc1cccc2sc(=NC(=O)c3ccc(S(=O)(=O)N4CCOCC4)cc3)n(C)c12 | inactive: 77% |
| CCn1cc(C(=O)N2CCN(c3ccccc3OC)CC2)c2cc(OC)c(OC)cc2c1=O | inactive: 63% |
| COc1ccc2c(=O)c(NC(=O)Nc3ccc(F)cc3F)c[nH]c2c1 | inactive: 92% |
| CCN1C(=O)C(C2SC(=S)N(CC)C2=O)SC1=S (stereo unspecified) | inactive: 95% |
| COc1ccc(C(=O)Nc2ccc3c(c2)CCCN3S(=O)(=O)c2ccc(C)cc2)cc1 | inactive: 76% |
| c1ccc2sc(N3CCN(Cc4nnnn4C4CCCC4)CC3)nc2c1 | inactive: 85% |
| COc1ccc(NC(=O)c2oc3ccccc3c2NC(=O)c2cc(=O)c3ccccc3o2)cc1 | inactive: 83% |
| CCCCN(CCCC)CCn1cnc2c([nH]c3ccc(OC)cc32)c1=O | inactive: 119% |
| COc1ccc(CNC(=O)c2ccc(-c3nc(CSc4ccccc4)c(C)o3)cc2)cc1 | inactive: 80% |
| O=C(Nc1ccccc1)NC1(C(=O)N2CCN(C(=O)c3ccco3)CC2)CCCCC1 | inactive: 70% |
| CCOc1ccccc1NC(=O)C1CCCN(C(=O)Nc2ccccc2)C1 (stereo unspecified) | inactive: 96% |
| CCOC(=O)c1cnc2c(OC)cccc2c1N1CCN(c2ccccc2F)CC1 | active: 1% |
| CC(=O)N1CCN(CCN=CC2=C(O)CC(c3ccco3)CC2=O)CC1 (stereo unspecified) | inactive: 107% |
| COc1ccc(CCNC(=O)CCCCn2c(=O)c3ccccc3n(Cc3cccc(C)c3)c2=O)cc1OC | inactive: 92% |
| CCOC(=O)c1c(NC(=O)C(C)Oc2ccccc2F)sc(C(C)=O)c1C (stereo unspecified) | inactive: 52% |
| c1ccc(N=C(c2cccs2)N2CCOCC2)cc1 | inactive: 107% |
| Cc1nn2c(=O)cc(COC(=O)c3ccccc3NC(=O)C3CCCCC3)nc2s1 | inactive: 73% |
| CCOc1ccc(N(CC)S(=O)(=O)N2CCCC(C(=O)NCc3ccccc3OCC)C2)cc1 (stereo unspecified) | inactive: 79% |
| O=C(NCCc1csc(-c2cccc(F)c2)n1)c1ccco1 | inactive: 94% |
| COc1cc(C(=O)N(CCCN(C)C)c2nc3c(OC)cccc3s2)cc(OC)c1OC | inactive: 122% |
| O=C(NC1CCCC1)c1ccc2c(c1)N(Cc1c(F)cccc1Cl)C(=O)c1ccccc1S2 | inactive: 116% |

| SMILES | survival |
| --- | --- |
| CCc1ccc(-c2nc(CN3CCCC(C(=O)NCc4ccccc4Cl)C3)c(C)o2)cc1 (stereo unspecified) | inactive: 67% |
| Cc1ccc2c(c1)-c1nc(-c3ccccc3)cc(-c3ccccc3)c1CO2 | inactive: 91% |
| CCCN(CCC)S(=O)(=O)c1ccc(C(=O)N2CCC(=O)c3ccccc32)cc1 | inactive: 94% |
| Cc1[nH]c2ccccc2c1C1(O)C(=O)Nc2ccc(Cl)cc21 (stereo unspecified) | inactive: 66% |
| COc1cccc(C(=O)NCC(c2ccc3c(c2)OCO3)N2CCN(C)CC2)c1 (stereo unspecified) | inactive: 112% |
| Cc1ccc(-n2c3c(c(=O)[nH]c2=O)C(NC(=O)C(C)(C)C)(C(F)(F)F)C(=O)N3)cc1 (stereo unspecified) | inactive: 55% |
| COc1ccc(OC)c(NC(=O)CCCOc2cc(=O)n(C)c3ccccc23)c1 | inactive: 63% |
| CC(Nc1ccccc1)c1ccncc1 (stereo unspecified) | inactive: 80% |
| COc1cccc(NC(=O)CSC2=Nc3ccccc3C3=NC(CCC(=O)NC4CCCCC4)C(=O)N23)c1 (stereo unspecified) | inactive: 78% |
| Cc1nn(CC(=O)NC(C)c2ccccc2)c(=O)c2cc3occc3n12 (stereo unspecified) | inactive: 90% |
| Cc1cc2ncn(S(=O)(=O)c3ccc(S(=O)(=O)NCC4CCCO4)cc3)c2cc1C (stereo unspecified) | inactive: 82% |
| COc1cccc2c1Oc1ncccc1N(C(=O)CCC(=O)NCc1ccc(OC(C)C)cc1)C2 | inactive: 83% |
| CCOC(=O)C1=C(CN2CCN(c3ccc(Cl)cc3)CC2)NC(=O)NC1c1ccc(F)cc1 (stereo unspecified) | inactive: 70% |
| NC(=O)COc1ccc(-c2noc(COc3ccc(Cl)cc3)n2)cc1 | inactive: 153% |
| O=C(CSc1nc2c([nH]c3ccccc32)c(=O)n1-c1ccccc1)Nc1ccccc1C(F)(F)F | inactive: 87% |
| NS(=O)(=O)c1ccc(CCNC(=O)Cn2c(=O)c3cccn3c3ccc(F)cc32)cc1 | inactive: 89% |
| COc1ccc2c(c1)CC(C(=O)Nc1c(C)cc(C)cc1C)CO2 (stereo unspecified) | inactive: 75% |
| COc1cc(OC)c(NC(=O)Cn2c(=O)nc(-c3ccccc3)c3ccccc32)cc1Cl | inactive: 102% |
| COCCCNc1oc(-c2ccc(COc3ccccc3C)o2)nc1C#N | active: 43% |
| COc1cccc(Cn2c(=O)n(-c3cc(C)cc(C)c3)c(=O)c3oc4ccccc4c32)c1 | inactive: 62% |
| Cc1nnc(N(Cc2ccco2)C(=O)c2cccc(C#N)c2)s1 | inactive: 94% |
| CCc1ccccc1NC(=O)Cn1cc(C(=O)c2ccncc2)c(=O)c2cc(C)ccc21 | inactive: 83% |
| O=C(CCSCCc1ccccn1)Nc1ccccc1C(F)(F)F | inactive: 73% |

| SMILES | survival |
| --- | --- |
| CC(=O)Nc1ccc(C(=O)N2CCOCC2)cc1 | inactive: 85% |
| O=C(COCc1cc(-c2ccc(F)cc2)on1)Nc1cc(Cl)cc(Cl)c1 | inactive: 144% |
| Cc1ccc(-n2ncc3c(NCCc4ccccc4)ncnc32)cc1Cl | inactive: 65% |
| COc1ccc(CCNC(=O)c2cc(-c3ccc(C)cc3)nc3n[nH]c(-c4ccc(F)cc4)c23)cc1OC | inactive: 107% |
| O=C(NCc1ccccc1)C1CCCN1S(=O)(=O)c1ccc(Cl)cc1 (stereo unspecified) | inactive: 93% |
| O=C1NN(c2ccccc2)C(=O)/C1=C\c1ccccc1 | inactive: 99% |
| O=C(CCSCc1cccc(F)c1)NCCc1ccccc1 | inactive: 107% |
| CCCCCOc1ccc(C(=O)CCN2CCOCC2)cc1 | inactive: 90% |
| CCCN1CCN(CCCNC(=O)c2cc3c(=O)[nH]c4ccccc4c3s2)CC1 | inactive: 79% |
| COc1ccc(NC(=O)CNC(=O)Cn2ccc3ccccc3c2=O)c(OC)c1 | inactive: 67% |
| Nc1c(C(=O)N2CCOCC2)sc2nc3c(cc12)CCCC3 | inactive: 89% |
| CCc1ccc(NC(=O)C2CCN(c3ccc(Sc4ccc(C)cc4)nn3)CC2)cc1 | inactive: 93% |
| C=CCOc1cccc(CNn2nnnc2N)c1 | inactive: 97% |
| CCOc1cc(CNC(=O)c2cc(-c3ccc(Cl)s3)nc3ccccc23)ccc1OC | inactive: 84% |
| CCCC(=O)C1=C(N(C)c2ccccc2)CC(C)(C)CC1=O | inactive: 75% |
| COc1ccc(CCNC(=O)Cn2c(=O)cc(C(F)(F)F)c3c(C)nn(C)c32)c(OC)c1 | inactive: 80% |
| CCc1ccc(C2=CC(c3cccc(OC)c3OC)n3c(nc4ccccc43)N2)cc1 (stereo unspecified) | inactive: 61% |
| Cc1ccc(N2CCN(S(=O)(=O)c3nnc(NC(=O)c4cccc(F)c4)s3)CC2)cc1 | inactive: 57% |
| Cc1ccc(CNC(=O)c2cnc(N3CCCC3)nc2C)cc1 | inactive: 91% |
| CCc1ccccc1NC(=O)c1nnn(CC(=O)Nc2c(C)cc(C)cc2C)c1N | inactive: 85% |
| N#Cc1ccccc1NC(=O)CSC1=NCCS1 | inactive: 99% |
| Cc1cc(C)c2c(NC(=O)c3ccccc3Cl)c(C(=O)Nc3ccc(C)c(C)c3)sc2n1 | inactive: 47% |
